The labels stand for the following.
B1: LINE1-mini (parent)
chain: GGCAGAGCUCAACACAGCGUGGCAAAGUGGCUGUGGCUAGACUGCC

The source gives no read counts; variants with many changes may rest on few reads.

The source of these data is the RNAGym collection of RNA variant scans (doi:10.7554/elife.90254).

The variants in the data set derive from B1. Nature of the data set: self-cleavage, relative activity (ratio to wild type); higher = more cleavage; in vitro, sequencing; the parent is a self-cleaving ribozyme.
As to GGCAGAGCUCAACACAGCGUGGCAAUGUGGCUCUGGCUCGACUGCC [A26U G33C A39C], the self-cleavage was 0.03.
For GGCAGAGCUCAACACAGCGUGGCAAAAUGGCGGUGGCUAGACCGGC [G27A U32G U43C C45G], the self-cleavage was 0.07.
In the case of GGCAGAGCUCAACACAGCGUGGCAAAAUGGCUGUGGCUAGACGGCA [G27A U43G C46A] it was 0.01; in that of GGCAGAGCUCAACACAGCGUGGCAAUGUGGCUGUGGCAAGGUUGCA [A26U U38A A41G C42U C46A], 0.04; in that of GGCAGAGCUCAACACAGCGUGGCAAUGUGGCUGUCGCUAGAAUACC [A26U G35C C42A G44A], 0.14.
In the case of GGCAGAGCUCAACACAGCGUGGCAAAAUGGCUGUGGCUACACAGCC [G27A G40C U43A], the self-cleavage turned out to be 0.02.
Take GGCAGAGCUCAACACAGCGUGGCAAUGUGACUUUGGCUAGACUGCC [A26U G30A G33U]: the self-cleavage is 0.06.
For GGCAGAGCUCAACACAGCGUGGCAAACUAGCUGUUACUAGACUGCC [G27C G29A G35U G36A] the value was 0.45; for GGCAGAGCUCAACACAGCGUGGCAAACUGGAUGUGGCUAGACUGCU [G27C C31A C46U], 0; for GGCAGAGCUCAACACAGCGUGGCAAUGUGGCGGGGGCUAGACUGCC [A26U U32G U34G], 0.02.
In the case of GGCAGAGCUCAACACAGCGUGGCAAACUAGCUGUGCCUACACUGCC [G27C G29A G36C G40C] it was 0.18; in that of GGCAGAGCUCAACACAGCGUGGCAAACUGGCUGUGGGUGGACUGCC [G27C C37G A39G], 0.01; in that of GGCAGAGCUCAACACAGCGUGGCAAAAUGGCUGCGGCUAGAGUGCC [G27A U34C C42G], 0.05.
As to GGCAGAGCUCAACACAGCGUGGCAAAAUGGCUUUGGGUCGACUGCC [G27A G33U C37G A39C], the self-cleavage was determined as 0.02.
Consider GGCAGAGCUCAACACAGCGUGGCAAAAUGGCGGUGGCUAUACUGCC [G27A U32G G40U], for which the self-cleavage stood at 0.51.
For GGCAGAGCUCAACACAGCGUGGCAAACUGGCUCUGGGUAGACUGCC [G27C G33C C37G] the value was 0.04.
Consider GGCAGAGCUCAACACAGCGUGGCAAACGGGCUGUGGUUAGACUGCC [G27C U28G C37U], for which the self-cleavage was found to be 0.01.
In the case of GGCAGAGCUCAACACAGCGUGGCAAUGUGUCUGUGGCUACACGACC [A26U G30U G40C U43G G44A] it was 0.01; in that of GGCAGAGCUCAACACAGCGUGGCAAUGUGGCUAUGGAUAGACUGCC [A26U G33A C37A], 0.04.
Take GGCAGAGCUCAACACAGCGUGGCAAUGUGGCUGUAGCUUGACUGCC [A26U G35A A39U]: the self-cleavage turned out to be 0.13.
On to GGCAGAGCUCAACACAGCGUGGCAAAAUGGCGGUGGCUAGUCUGAC [G27A U32G A41U C45A], for which the self-cleavage stood at 0.02.
Take GGCAGAGCUCAACACAGCGUGGCAAACUGGCUUUGGCUAGACGCCC [G27C G33U U43G G44C]: the self-cleavage was 0.02.
On to GGCAGAGCUCAACACAGCGUGGCAAUGCGACUGUGGCUAGACUGCC [A26U U28C G30A], for which the self-cleavage amounted to 0.37.
For GGCAGAGCUCAACACAGCGUGGCAAUGGGGCAGUCGCUUGACUGCC [A26U U28G U32A G35C A39U] the value was 0.08; for GGCAGAGCUCAACACAGCGUGGCAAAAUCGCUGCGGCUACACUGCC [G27A G29C U34C G40C], 0.03.
In the case of GGCAGAGCUCAACACAGCGUGGCAAACCGGCUGUGGCUAGACUGCU [G27C U28C C46U] it was 0.08; in that of GGCAGAGCUCAACACAGCGUGGCAAAAUGGCUUUGUCUAGACUGCC [G27A G33U G36U], 0.04.
GGCAGAGCUCAACACAGCGUGGCAAAAUAGCUGUAGCUAGACUGCC [G27A G29A G35A]: the self-cleavage turned out to be 0.27.
As to GGCAGAGCUCAACACAGCGUGGCAAUGUGUCUGAGGCUAGACUGCC [A26U G30U U34A], the self-cleavage amounted to 0.01.
Regarding GGCAGAGCUCAACACAGCGUGGCAAAAUGGCUGUGGCUAGACCGCA [G27A U43C C46A], the self-cleavage amounted to 0.06.
As to GGCAGAGCUCAACACAGCGUGGCAAACUGGCUGUGGCUAAACUACC [G27C G40A G44A], the self-cleavage is 0.09.
For the variant GGCAGAGCUCAACACAGCGUGGCAAAACGGCUGUGGCUAGGCUGCC [G27A U28C A41G], the self-cleavage amounted to 0.15.
For GGCAGAGCUCAACACAGCGUGGCAAACUGGCUGUGUCUAGACUGCA [G27C G36U C46A] the value was 0; for GGCAGAGCUCAACACAGCGUGGCAAACUGGCUGUGGCUCGCUUGAC [G27C A39C A41C C42U C45A], 0.01.
In the case of GGCAGAGCUCAACACAGCGUGGCAAACUGGCUGUAGCGAGAAUGCC [G27C G35A U38G C42A] it was 0.01.
As to GGCAGAGCUCAACACAGCGUGGCAAACCGGGUGUGGCUAGAGUGCC [G27C U28C C31G C42G], the self-cleavage turned out to be 0.05.
For GGCAGAGCUCAACACAGCGUGGCAAAAUGGCUUUGGCUAGAUUGCC [G27A G33U C42U] the value was 0.03.
For GGCAGAGCUCAACACAGCGUGGCAAAAAGGCUGCGGCUAGACUGCC [G27A U28A U34C], the self-cleavage was determined as 0.16.
For GGCAGAGCUCAACACAGCGUGGCAAUGUGGCUUUGGCUAGACUCGC [A26U G33U G44C C45G] the value was 0.04.
For GGCAGAGCUCAACACAGCGUGGCAAAAAGCCUGUGGCUAGAGUGCC [G27A U28A G30C C42G], the self-cleavage was 0.06.
For GGCAGAGCUCAACACAGCGUGGCAAACUGGCUGUGGCUCUACUGCC [G27C A39C G40U] the value was 0.07; for GGCAGAGCUCAACACAGCGUGGCAAAAUGGCUGUGGCUACACGCCC [G27A G40C U43G G44C], 0.02; for GGCAGAGCUCAACACAGCGUGGCAAUGUGGCUGUGAUUAGACUGCC [A26U G36A C37U], 0.04.
In the case of GGCAGAGCUCAACACAGCGUGGCAAAAUGGCUGUGACUAGAGUGCC [G27A G36A C42G] it was 0.05; in that of GGCAGAGCUCAACACAGCGUGGCAAACUGGCUGUGUCUAGUUUGCC [G27C G36U A41U C42U], 0; in that of GGCAGAGCUCAACACAGCGUGGCAAUGUGGCUGUUGCUAGACUGCG [A26U G35U C46G], 0.02.
In the case of GGCAGAGCUCAACACAGCGUGGCAAAAUCGCUGUGGCUAGACUGCG [G27A G29C C46G] it was 1.64.
Consider GGCAGAGCUCAACACAGCGUGGCAAACUGACUGUGGCUAGCCCGCC [G27C G30A A41C U43C], for which the self-cleavage amounted to 0.03.
For GGCAGAGCUCAACACAGCGUGGCAAAAUGGCUAUGGCUAGAAUGUC [G27A G33A C42A C45U] the value was 0.01; for GGCAGAGCUCAACACAGCGUGGCAAAAUGGUUGUGGCUAGACUACC [G27A C31U G44A], 0.28.
For GGCAGAGCUCAACACAGCGUGGCAAUUCAGCUGUGGCUAGACUGCC [A26U G27U U28C G29A] the value was 0.45; for GGCAGAGCUCAACACAGCGUGGCAAAAUGUCUGUGGCUUGACUGCG [G27A G30U A39U C46G], 0.83; for GGCAGAGCUCAACACAGCGUGGCAAUGUGGCUGGGGCUGGACUGCC [A26U U34G A39G], 0.03.
For GGCAGAGCUCAACACAGCGUGGCAAAAUGGCAGUGGCUAGACUGAC [G27A U32A C45A] the value was 0.1.
For the variant GGCAGAGCUCAACACAGCGUGGCAAAAUGGCUCUGGCUCGACUGCC [G27A G33C A39C], the self-cleavage stood at 0.02.
For GGCAGAGCUCAACACAGCGUGGCAAAAUGGCAGUGGUUAAACUUCC [G27A U32A C37U G40A G44U] the value was 0.09.
